The supplement of paper PMC8728848
The other results are listed elsewhere or left out.

What was measured:
Assay in all cases: glycan array binding signal (z-score within array); higher = stronger binding
Conditions in all cases: glycan notation: IUPAC condensed, linker removed
[1] = molecular target: Fuc(a1-2)[Gal(a1-3)]Gal(b1-4)GlcNAc(b1-2)Man(a1-3)[Fuc(a1-2)[Gal(a1-3)]Gal(b1-4)GlcNAc(b1-2)Man(a1-6)]Man(b1-4)GlcNAc(b1-4)GlcNAc
Outline: (§1)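 The binding signal is a Z-score computed within each array and averaged over linkers. Arrays of the same protein sequence at different concentrations or buffers were also averaged together. Data originate from 3228 arrays in the Consortium for Functional Glycomics database, kept only where the protein sequence was available.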

[2] = molecular target: Fuc(a1-2)[Gal(a1-3)]Gal(b1-4)GlcNAc(b1-2)Man(a1-3)[Fuc(a1-2)[Gal(a1-3)]Gal(b1-4)GlcNAc(b1-2)Man(a1-6)]Man(b1-4)GlcNAc(b1-4)[Fuc(a1-6)]GlcNAc
Outline: as §1

[3] = molecular target: Fuc(a1-2)[Gal(a1-3)]Gal(b1-4)GlcNAc(b1-3)GalNAc
Outline: as §1

[4] = molecular target: Fuc(a1-2)[Gal(a1-3)]Gal(b1-4)GlcNAc(b1-3)[Fuc(a1-2)[Gal(a1-3)]Gal(b1-4)GlcNAc(b1-6)]GalNAc
Outline: as §1

[5] = molecular target: Fuc(a1-2)[Gal(a1-3)]Gal(b1-4)GlcNAc(b1-6)GalNAc
Outline: as §1

[6] = molecular target: Fuc(a1-2)[Gal(a1-3)]Gal(b1-4)[Fuc(a1-3)]Glc
Outline: as §1

[7] = molecular target: Fuc(a1-2)[Gal(a1-3)]Gal(b1-4)[Fuc(a1-3)]GlcNAc
Outline: as §1

[8] = molecular target: Fuc(a1-2)[Gal(a1-3)]Gal(b1-4)[Fuc(a1-3)]GlcNAc(b1-3)GalNAc
Outline: as §1

[9] = molecular target: Fuc(a1-2)[Gal(a1-4)]Gal(b1-4)GlcNAc
Outline: as §1

[10] = molecular target: Fuc(a1-2)[GalNAc(a1-3)]Gal
Outline: as §1

[11] = molecular target: Fuc(a1-2)[GalNAc(a1-3)]Gal(b1-3)GalNAc(a1-3)[Fuc(a1-2)]Gal(b1-4)GlcNAc
Outline: as §1

[12] = molecular target: Fuc(a1-2)[GalNAc(a1-3)]Gal(b1-3)GalNAc(b1-3)Gal(a1-4)Gal(b1-4)Glc
Outline: as §1

[13] = molecular target: Fuc(a1-2)[GalNAc(a1-3)]Gal(b1-3)GlcNAc
Outline: as §1

[14] = molecular target: Fuc(a1-2)[GalNAc(a1-3)]Gal(b1-3)GlcNAc(b1-2)Man(a1-3)[Fuc(a1-2)[GalNAc(a1-3)]Gal(b1-3)GlcNAc(b1-2)Man(a1-6)]Man(b1-4)GlcNAc(b1-4)GlcNAc
Outline: as §1

[15] = molecular target: Fuc(a1-2)[GalNAc(a1-3)]Gal(b1-3)GlcNAc(b1-2)Man(a1-3)[Fuc(a1-2)[GalNAc(a1-3)]Gal(b1-3)GlcNAc(b1-2)Man(a1-6)]Man(b1-4)GlcNAc(b1-4)[Fuc(a1-6)]GlcNAc
Outline: as §1

[16] = molecular target: Fuc(a1-2)[GalNAc(a1-3)]Gal(b1-3)GlcNAc(b1-3)GalNAc
Outline: as §1

[17] = molecular target: Fuc(a1-2)[GalNAc(a1-3)]Gal(b1-3)GlcNAc(b1-6)GalNAc
Outline: as §1

[18] = molecular target: Fuc(a1-2)[GalNAc(a1-3)]Gal(b1-4)Glc
Outline: as §1

[19] = molecular target: Fuc(a1-2)[GalNAc(a1-3)]Gal(b1-4)GlcNAc
Outline: as §1

[20] = molecular target: Fuc(a1-2)[GalNAc(a1-3)]Gal(b1-4)GlcNAc(b1-2)Man
Outline: as §1

[21] = molecular target: Fuc(a1-2)[GalNAc(a1-3)]Gal(b1-4)GlcNAc(b1-2)Man(a1-3)[Fuc(a1-2)[GalNAc(a1-3)]Gal(b1-4)GlcNAc(b1-2)Man(a1-6)]Man(b1-4)GlcNAc(b1-4)GlcNAc
Outline: as §1

[22] = molecular target: Fuc(a1-2)[GalNAc(a1-3)]Gal(b1-4)GlcNAc(b1-2)Man(a1-3)[Fuc(a1-2)[GalNAc(a1-3)]Gal(b1-4)GlcNAc(b1-2)Man(a1-6)]Man(b1-4)GlcNAc(b1-4)[Fuc(a1-6)]GlcNAc
Outline: as §1

[23] = molecular target: Fuc(a1-2)[GalNAc(a1-3)]Gal(b1-4)GlcNAc(b1-3)Gal(b1-4)GlcNAc
Outline: as §1

[24] = molecular target: Fuc(a1-2)[GalNAc(a1-3)]Gal(b1-4)GlcNAc(b1-3)Gal(b1-4)GlcNAc(b1-3)Gal(b1-4)GlcNAc
Outline: as §1

[25] = molecular target: Fuc(a1-2)[GalNAc(a1-3)]Gal(b1-4)GlcNAc(b1-3)GalNAc
Outline: as §1

[26] = molecular target: Fuc(a1-2)[GalNAc(a1-3)]Gal(b1-4)GlcNAc(b1-3)[Fuc(a1-2)[GalNAc(a1-3)]Gal(b1-4)GlcNAc(b1-6)]GalNAc
Outline: as §1

[27] = molecular target: Fuc(a1-2)[GalNAc(a1-3)]Gal(b1-4)GlcNAc(b1-6)GalNAc
Outline: as §1

[28] = molecular target: Fuc(a1-2)[GalNAc(a1-3)]Gal(b1-4)[Fuc(a1-3)]GlcNAc
Outline: as §1

[29] = molecular target: Fuc(a1-2)[GalNAc(a1-3)]Gal(b1-4)[Fuc(a1-3)]GlcNAc(b1-3)GalNAc
Outline: as §1

[30] = molecular target: Fuc(a1-2)[GalNAc(a1-4)]Gal(b1-4)GlcNAc
Outline: as §1

[31] = molecular target: Fuc(a1-2)[GalNAc(b1-3)]Gal
Outline: as §1

Fuc(a1-3)GlcNAc = molecular target: Fuc(a1-3)GlcNAc
Outline: as §1

[32] = molecular target: Fuc(a1-3)[Gal(b1-4)]Glc6S
Outline: as §1

[33] = molecular target: Fuc(a1-3)[Gal(b1-4)]GlcNAc
Outline: as §1

[34] = molecular target: Fuc(a1-3)[Gal(b1-4)]GlcNAc(b1-2)Man
Outline: as §1

[35] = molecular target: Fuc(a1-3)[Gal(b1-4)]GlcNAc(b1-2)Man(a1-3)[Fuc(a1-3)[Gal(b1-4)]GlcNAc(b1-2)Man(a1-6)]Man(b1-4)GlcNAc(b1-4)GlcNAc
Outline: as §1

[36] = molecular target: Fuc(a1-3)[Gal(b1-4)]GlcNAc(b1-2)Man(a1-3)[Fuc(a1-3)[Gal(b1-4)]GlcNAc(b1-2)Man(a1-6)]Man(b1-4)GlcNAc(b1-4)[Fuc(a1-6)]GlcNAc
Outline: as §1

[37] = molecular target: Fuc(a1-3)[Gal(b1-4)]GlcNAc(b1-3)Gal(b1-3)[Fuc(a1-4)]GlcNAc
Outline: as §1

[38] = molecular target: Fuc(a1-3)[Gal(b1-4)]GlcNAc(b1-3)Gal(b1-4)[Fuc(a1-3)]GlcNAc
Outline: as §1

[39] = molecular target: Fuc(a1-3)[Gal(b1-4)]GlcNAc(b1-3)Gal(b1-4)[Fuc(a1-3)]GlcNAc(b1-3)Gal(b1-4)[Fuc(a1-3)]GlcNAc
Outline: as §1

[40] = molecular target: Fuc(a1-3)[Gal(b1-4)]GlcNAc(b1-3)GalNAc
Outline: as §1

[41] = molecular target: Fuc(a1-3)[Gal(b1-4)]GlcNAc(b1-6)GalNAc
Outline: as §1

[42] = molecular target: Fuc(a1-3)[Gal(b1-4)]GlcNAc(b1-6)[Gal(b1-3)GlcNAc(b1-3)]Gal(b1-4)Glc
Outline: as §1

[43] = molecular target: Fuc(a1-3)[Gal(b1-4)]GlcNAc6S
Outline: as §1

[44] = molecular target: Fuc(a1-3)[Gal3S(b1-4)]Glc
Outline: as §1

[45] = molecular target: Fuc(a1-3)[Gal3S(b1-4)]GlcNAc
Outline: as §1

[46] = molecular target: Fuc(a1-3)[Gal3S(b1-4)]GlcNAc6S
Outline: as §1

[47] = molecular target: Fuc(a1-3)[GalNAc(b1-4)]GlcNAc
Outline: as §1

[48] = molecular target: Fuc(a1-3)[GalNAc(b1-4)]GlcNAc6S
Outline: as §1

Fuc(a1-4)GlcNAc = molecular target: Fuc(a1-4)GlcNAc
Outline: as §1

Fuc(b1-3)GlcNAc = molecular target: Fuc(b1-3)GlcNAc
Outline: as §1

Gal(a1-2)Gal = molecular target: Gal(a1-2)Gal
Outline: as §1

Gal(a1-3)Gal = molecular target: Gal(a1-3)Gal
Outline: as §1

Gal(a1-3)Gal(b1-3)GlcNAc = molecular target: Gal(a1-3)Gal(b1-3)GlcNAc
Outline: as §1

[49] = molecular target: Gal(a1-3)Gal(b1-3)GlcNAc(b1-2)Man
Outline: as §1

[50] = molecular target: Gal(a1-3)Gal(b1-3)GlcNAc(b1-2)Man(a1-3)[Gal(a1-3)Gal(b1-3)GlcNAc(b1-2)Man(a1-6)]Man(b1-4)GlcNAc(b1-4)GlcNAc
Outline: as §1

[51] = molecular target: Gal(a1-3)Gal(b1-3)GlcNAc(b1-3)GalNAc
Outline: as §1

[52] = molecular target: Gal(a1-3)Gal(b1-3)GlcNAc(b1-6)GalNAc
Outline: as §1

[53] = molecular target: Gal(a1-3)Gal(b1-3)[Fuc(a1-4)]GlcNAc(b1-2)Man(a1-3)[Gal(a1-3)Gal(b1-3)[Fuc(a1-4)]GlcNAc(b1-2)Man(a1-6)]Man(b1-4)GlcNAc(b1-4)GlcNAc
Outline: as §1

Gal(a1-3)Gal(b1-4)Glc = molecular target: Gal(a1-3)Gal(b1-4)Glc
Outline: as §1

B1: Epa23 (Candida glabrata) (protein)
chain: MGSSHHHHHHSSGLVPRGSHMIPNPFEGTINNFPSGCSPNHGLYNRGLTMELYNYSYIHPQSIQSYFNTSTLKKMEKGQCWDPSYLDVNYPRTGYKTHNRFAKVNGIDGILDFEFNPTRSCVPSKGQLPQNYNYPLQFTLSNFTMLLYGYFKPKVTAKHTFTIFADDLLFLNFGAGNAFDCCQQQDTIDDFGNYQAYALWGSDTQQNTLTVNLDANIYYPIRMFYNNRDFKGALNMYFTTDESNTKINDFSGYLFNIPDSSEGCPAHISYETECGNVSG
glycan array binding signal (z-score) [1]: -0.173
glycan array binding signal (z-score) [2]: -0.205
glycan array binding signal (z-score) [3]: -0.213
glycan array binding signal (z-score) [4]: -0.134
glycan array binding signal (z-score) [5]: -0.247
glycan array binding signal (z-score) [6]: -0.259
glycan array binding signal (z-score) [7]: -0.159
glycan array binding signal (z-score) [8]: -0.204
glycan array binding signal (z-score) [9]: -0.032
glycan array binding signal (z-score) [10]: -0.153
glycan array binding signal (z-score) [11]: -0.274
glycan array binding signal (z-score) [12]: -0.214
glycan array binding signal (z-score) [13]: -0.185
glycan array binding signal (z-score) [14]: -0.207
glycan array binding signal (z-score) [15]: -0.218
glycan array binding signal (z-score) [16]: -0.229
glycan array binding signal (z-score) [17]: -0.324
glycan array binding signal (z-score) [18]: -0.234
glycan array binding signal (z-score) [19]: -0.211
glycan array binding signal (z-score) [20]: -0.251
glycan array binding signal (z-score) [21]: -0.156
glycan array binding signal (z-score) [22]: -0.24
glycan array binding signal (z-score) [23]: -0.241
glycan array binding signal (z-score) [24]: -0.114
glycan array binding signal (z-score) [25]: -0.25
glycan array binding signal (z-score) [26]: -0.177
glycan array binding signal (z-score) [27]: -0.213
glycan array binding signal (z-score) [28]: -0.207
glycan array binding signal (z-score) [29]: -0.299
glycan array binding signal (z-score) [30]: -0.207
glycan array binding signal (z-score) [31]: -0.23
glycan array binding signal (z-score) (Fuc(a1-3)GlcNAc): -0.214
glycan array binding signal (z-score) [32]: -0.144
glycan array binding signal (z-score) [33]: -0.11
glycan array binding signal (z-score) [34]: -0.223
glycan array binding signal (z-score) [35]: -0.1
glycan array binding signal (z-score) [36]: -0.205
glycan array binding signal (z-score) [37]: -0.249
glycan array binding signal (z-score) [38]: -0.183
glycan array binding signal (z-score) [39]: -0.177
glycan array binding signal (z-score) [40]: -0.211
glycan array binding signal (z-score) [41]: -0.174
glycan array binding signal (z-score) [42]: -0.258
glycan array binding signal (z-score) [43]: -0.074
glycan array binding signal (z-score) [44]: -0.161
glycan array binding signal (z-score) [45]: -0.262
glycan array binding signal (z-score) [46]: -0.161
glycan array binding signal (z-score) [47]: -0.199
glycan array binding signal (z-score) [48]: -0.268
glycan array binding signal (z-score) (Fuc(a1-4)GlcNAc): -0.188
glycan array binding signal (z-score) (Fuc(b1-3)GlcNAc): -0.185
glycan array binding signal (z-score) (Gal(a1-2)Gal): -0.213
glycan array binding signal (z-score) (Gal(a1-3)Gal): 0.097
glycan array binding signal (z-score) (Gal(a1-3)Gal(b1-3)GlcNAc): 0.064
glycan array binding signal (z-score) [49]: 0.017
glycan array binding signal (z-score) [50]: -0.178
glycan array binding signal (z-score) [51]: -0.061
glycan array binding signal (z-score) [52]: -0.077
glycan array binding signal (z-score) [53]: -0.161
glycan array binding signal (z-score) (Gal(a1-3)Gal(b1-4)Glc): -0.178
